The results in this text go back to a collection of fitness landscapes (doi:10.1126/science.1257360).

This is one part of the list. Some results are limits rather than exact numbers.

To fix the notation:
B1: PhoQ; a variant is named by its letters at X, in order, P23837 (parent)
chain: MKKLLRLFFPLSLRVRFLLATAAVVLVLSLAYGMVALIGYSVSFDKTTFRLLRGESNLFYTLAKWENNKLHVELPENIDKQSPTMTLIYDENGQLLWAQRDVPWLMKMIQPDWLKSNGFHEIEADVNDTSLLLSGDHSIQQQLQEVREDDDDAEMTHSVAVNVYPATSRMPKLTIVVVDTIPVELKSSYMVWSWFIYVLSANLLLVIPLLWVAAWWSLRPIEALAKEVRELEEHNRELLNPATTRELTSLVRNLNRLLKSERERYDKYRTTLTDLTHSLKTPLXXLQXXLRSLRSEKMSVSDAEPVMLEQISRISQQIGYYLHRASMRGGTLLSRELHPVAPLLDNLTSALNKVYQRKGVNISLDISPEISFVGEQNDFVEVMGNVLDNACKYCLEFVEISARQTDEHLYIVVEDDGPGIPLSKREVIFDRGQRVDTLRPGQGVGLAVAREITEQYEGKIVAGESMLGGARMEVIFGRQHSAPKDE

In this assay the parent is B1. Kind of assay: enrichment ratio after two sorts for PhoP signalling (ratio (wild type AVST 3.29)); higher = more functional. The conditions noted are these: with PhoP (E. coli).
NAFD: the enrichment ratio is at most 0.25. The figure for AKVY is 5.81; for YWNP it is at most 0.25.

Turning to LQRY, the enrichment ratio is at most 0.25. On to SQHM, for which the enrichment ratio is at most 0.25.

For EGAG, the enrichment ratio is at most 0.25. As for HELV, the figure is 2.09.

In the case of IFRG, the enrichment ratio was at most 0.25.

For the variant LMKE, the enrichment ratio was at most 0.25. As for WSWE, the figure is at most 0.25; as for AMYL, at most 0.25; as for WSPG, at most 0.25. As for GMEP, the figure is at most 0.25; as for GPYF, at most 0.25; as for QRTY, at most 0.25.

For the variant GRMH, the enrichment ratio is at most 0.25. The figure for TIAS is 11.1; for MNCP it is at most 0.25.

Turning to QAGK, the enrichment ratio was at most 0.25. The figure for IIIY is at most 0.25; for RNTC it is at most 0.25. As for DSTA, the figure is at most 0.25.

As to DRID, the enrichment ratio is at most 0.25. The figure for TRDR is at most 0.25; for LPGP it is at most 0.25. The figure for KDDV is at most 0.25; for SLCT it is 19.2; for LYVS it is at most 0.25.

RAHM: the enrichment ratio is at most 0.25. As for GNCA, the figure is 9.24; as for HYPK, at most 0.25. As for GPYK, the figure is at most 0.25; as for WSNK, at most 0.25.

Turning to FERT, the enrichment ratio is at most 0.25.

As to DSRS, the enrichment ratio was at most 0.25.

For DRTY, the enrichment ratio was at most 0.25. The figure for GKTW is at most 0.25; for YIHC it is at most 0.25. As for GHDQ, the figure is at most 0.25; as for RHDL, at most 0.25. As for WPYQ, the figure is at most 0.25. WRTT: the enrichment ratio is at most 0.25.

GQNR: the enrichment ratio was at most 0.25. The figure for IMAT is at most 0.25; for TNYP it is at most 0.25; for KHGR it is at most 0.25.

As for VCGI, the enrichment ratio is at most 0.25. On to YFER, for which the enrichment ratio was at most 0.25.

Regarding CAIS, the enrichment ratio was at most 0.25. As for VWAK, the figure is at most 0.25; as for NHCT, at most 0.25; as for AYNY, at most 0.25. As for FLQR, the figure is at most 0.25; as for IWMD, at most 0.25. In the case of NEVC, the enrichment ratio is at most 0.25.

For the variant RSYW, the enrichment ratio was at most 0.25. The figure for RFTY is at most 0.25; for SGCR it is at most 0.25; for SNHP it is at most 0.25. The figure for FRVW is at most 0.25; for IPNI it is at most 0.25; for VTET it is at most 0.25.

Take LIGK: the enrichment ratio is at most 0.25. The figure for PLLF is at most 0.25; for DVRA it is at most 0.25.

VWPA: the enrichment ratio was at most 0.25.

For KVIR, the enrichment ratio was at most 0.25. The figure for WWVM is at most 0.25. As for IYWA, the figure is at most 0.25; as for KHGW, at most 0.25; as for AQWD, at most 0.25. MPGD: the enrichment ratio was at most 0.25. As for SVMV, the figure is 9.33; as for DESC, at most 0.25. The figure for YYFM is at most 0.25; for VMSS it is at most 0.25; for EVGN it is at most 0.25. As for PWVI, the figure is at most 0.25; as for SLYH, at most 0.25. On to DREC, for which the enrichment ratio is at most 0.25. As for PGSY, the figure is at most 0.25; as for NIKP, at most 0.25; as for LQKH, at most 0.25. The figure for ATMK is 7.72; for DRLQ it is at most 0.25; for VIFI it is at most 0.25. As for TKGW, the figure is at most 0.25; as for GHMG, at most 0.25; as for MQPS, at most 0.25. With MNFF, the enrichment ratio was determined as 5.49. Regarding VHKF, the enrichment ratio was at most 0.25. As for NTFW, the figure is at most 0.25; as for GQEM, at most 0.25; as for GVLW, 1.98.

On to DYRE, for which the enrichment ratio was at most 0.25. The figure for LQRL is at most 0.25; for TAWS it is 5.46; for FASW it is at most 0.25. Regarding HETF, the enrichment ratio was at most 0.25. As for IQNE, the figure is at most 0.25; as for EYEC, at most 0.25. Take EHWN: the enrichment ratio is at most 0.25. As for WYDL, the figure is at most 0.25; as for HRQP, at most 0.25; as for HTGC, at most 0.25. As for WNQQ, the figure is at most 0.25. As for WEFM, the figure is at most 0.25; as for QVSV, at most 0.25. As for KKGL, the enrichment ratio was at most 0.25.

Take FTQD: the enrichment ratio was at most 0.25.

On to EPIS, for which the enrichment ratio is at most 0.25. The figure for LQFG is 0.358.

In the case of HIPP, the enrichment ratio was at most 0.25. The figure for HFFK is at most 0.25; for DDNP it is at most 0.25; for MMTI it is at most 0.25. As for FSYY, the figure is at most 0.25.

For SFCP, the enrichment ratio was at most 0.25.

Turning to IARM, the enrichment ratio was at most 0.25. As for WKPD, the figure is at most 0.25.

In the case of ALCM, the enrichment ratio is 7.37. As for TKAA, the figure is 1.26; as for PPLK, at most 0.25. The figure for GFMN is at most 0.25; for TDMD it is at most 0.25. The figure for KRIF is at most 0.25; for YTWL it is at most 0.25; for NLWQ it is at most 0.25.

As for YHAM, the enrichment ratio is at most 0.25.

RKSD: the enrichment ratio was at most 0.25. As for GIYP, the figure is at most 0.25. As to FGWK, the enrichment ratio is at most 0.25. In the case of VLHW, the enrichment ratio is at most 0.25. As to SIGP, the enrichment ratio was at most 0.25.

Consider WKII, for which the enrichment ratio is at most 0.25. The figure for QWTI is at most 0.25; for ECFL it is at most 0.25; for HYAD it is at most 0.25. The figure for YPPM is at most 0.25; for PAQC it is at most 0.25; for MAEP it is at most 0.25. Consider CLYL, for which the enrichment ratio is at most 0.25. The figure for YFHL is at most 0.25. For the variant GDVY, the enrichment ratio was at most 0.25. The figure for EKPM is at most 0.25.

As for EPHD, the enrichment ratio is at most 0.25. As for MVCW, the figure is at most 0.25; as for YYPD, at most 0.25. The figure for HFTG is at most 0.25; for IYMM it is 0.427; for KMEH it is at most 0.25. Turning to AHIM, the enrichment ratio was at most 0.25. As for LVPH, the figure is at most 0.25.
